Measurements published in PubChem BioAssay AID1347165 (National Center for Advancing Translational Sciences (NCATS), 2019).
Hit rate of the full screen: of about 220,000 compounds, about 5,700 (2.6%) were called active. Inconclusive means that the source gave no clear call. Such entries were picked first, then a sample of the others. The call rests on the fitted dose curve; in most records, active means well fitted inhibition curve with a large enough effect; inconclusive means small, poorly fitted or top-dose-only effect; inactive means no such curve, though single readings can be large or run the other way. Where the call is inconclusive, the potency comes from a doubtful curve fit.

Biological target: Lysine-specific demethylase 5B (Homo sapiens) (UniProt Q9UGL1)
Experiment: Primary screen for KDM5B Histone Demethylases FDH-coupled qHTS; further: nearly all actives have a fitted effect of over 70% in size; on activity change, negative = inhibition: 0% is about no effect
Conditions: FDH-coupled NADH fluorescence (FDH is formaldehyde dehydrogenase); activity change, negative = inhibition: at 57.7 µM (top of the series) unless noted
In short: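 KDM5BΔAP (200 nM final) in 50 mM HEPES pH 7.5, 0.01% Tween-20 was preincubated 10 min at RT with compound over a concentration range. Substrate mix (H3K4me3 12.5 µM, α-KG 25 µM, Fe²⁺, ascorbate, NAD⁺, FDH) was added, and NADH fluorescence change over 30 min gave dose-response curves.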
Potency means the concentration at half of the fitted maximal effect; tags describe the fitted curve by direction and shape.

Sequence of UniProt Q9UGL1 (Q9UGL1 whole entry, looked up): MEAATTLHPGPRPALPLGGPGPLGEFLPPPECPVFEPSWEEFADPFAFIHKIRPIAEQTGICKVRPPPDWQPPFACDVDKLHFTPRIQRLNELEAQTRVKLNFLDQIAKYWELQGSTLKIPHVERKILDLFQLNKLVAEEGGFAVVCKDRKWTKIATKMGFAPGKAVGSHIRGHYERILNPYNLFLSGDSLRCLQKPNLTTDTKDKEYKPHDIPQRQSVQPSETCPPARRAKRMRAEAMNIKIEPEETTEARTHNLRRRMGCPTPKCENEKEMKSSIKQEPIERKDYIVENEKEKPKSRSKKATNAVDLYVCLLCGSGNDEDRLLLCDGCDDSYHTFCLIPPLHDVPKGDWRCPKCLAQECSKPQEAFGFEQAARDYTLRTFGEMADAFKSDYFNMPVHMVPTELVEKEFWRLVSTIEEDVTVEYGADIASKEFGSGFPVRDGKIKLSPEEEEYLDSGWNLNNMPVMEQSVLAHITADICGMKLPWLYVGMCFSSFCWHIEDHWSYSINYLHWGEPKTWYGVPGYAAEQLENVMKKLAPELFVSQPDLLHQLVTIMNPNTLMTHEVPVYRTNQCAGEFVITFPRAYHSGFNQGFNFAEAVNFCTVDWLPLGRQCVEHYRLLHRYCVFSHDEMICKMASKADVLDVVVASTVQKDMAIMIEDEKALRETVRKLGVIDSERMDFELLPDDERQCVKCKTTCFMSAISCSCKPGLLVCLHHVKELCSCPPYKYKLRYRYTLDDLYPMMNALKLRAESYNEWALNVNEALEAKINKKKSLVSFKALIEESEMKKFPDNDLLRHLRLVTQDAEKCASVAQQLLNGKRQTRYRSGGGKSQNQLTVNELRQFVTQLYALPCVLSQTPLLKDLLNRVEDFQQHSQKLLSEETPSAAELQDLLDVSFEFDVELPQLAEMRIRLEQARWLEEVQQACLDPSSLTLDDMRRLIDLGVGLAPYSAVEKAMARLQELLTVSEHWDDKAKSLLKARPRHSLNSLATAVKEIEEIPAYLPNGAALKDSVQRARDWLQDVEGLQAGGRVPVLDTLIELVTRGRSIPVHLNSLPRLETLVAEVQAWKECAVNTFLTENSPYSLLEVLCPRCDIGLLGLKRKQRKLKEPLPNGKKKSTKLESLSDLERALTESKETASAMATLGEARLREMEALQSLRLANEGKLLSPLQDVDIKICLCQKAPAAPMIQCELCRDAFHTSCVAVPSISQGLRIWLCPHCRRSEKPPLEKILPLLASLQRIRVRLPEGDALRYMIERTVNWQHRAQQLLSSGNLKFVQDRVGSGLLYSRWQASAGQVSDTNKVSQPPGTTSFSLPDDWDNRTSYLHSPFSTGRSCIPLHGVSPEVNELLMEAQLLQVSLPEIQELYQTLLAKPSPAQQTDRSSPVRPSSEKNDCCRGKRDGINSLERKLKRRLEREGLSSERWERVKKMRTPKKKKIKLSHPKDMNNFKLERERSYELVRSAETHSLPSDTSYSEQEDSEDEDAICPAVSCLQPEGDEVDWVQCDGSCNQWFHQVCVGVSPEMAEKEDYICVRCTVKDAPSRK

SMILES	Potency	activity change, negative = inhibition
C[C@@H](NC(=O)c1ccc2c(c1)OCO2)c1onc(-c2cccnc2)c1C(=O)O	inconclusive: 35.5 µM [inhibitor, single point]	–
CCc1ccc(CN(Cc2ccco2)c2cnc(S(C)(=O)=O)nc2C(=O)Nc2c(C)cccc2C)cc1	inconclusive: 15.8 µM [inhibitor, partial curve, poor fit]	–
N#Cc1nc(-c2cccc(Cl)c2)oc1NCCCn1ccnc1	–	inactive: -42.7%
Cc1noc(C)c1C(=O)N1Cc2ccccc2CC2(CCN(CC3CCNCC3)C2)C1 (stereo unspecified)	inconclusive: 70.8 µM [inhibitor, single point]	–
COCCNc1oc(-c2ccccc2Cl)nc1C#N	inconclusive: 39.8 µM [inhibitor, single point]	–
COc1cccc(CC(=O)N2CCC(N3CC(OCC4CC4)C34CCOCC4)CC2)c1 (stereo unspecified)	–	inactive: -2.08%
Cc1ccccc1CNc1nc(N(C)C)nc2c1cnn2C	inconclusive: 44.7 µM [inhibitor, single point]	–
Cc1[nH]c2ccccc2c1C(c1ccccc1)c1ccc(Cl)s1 (stereo unspecified)	inconclusive: 1 µM [inhibitor, full curve, poor fit]	–
COc1cccc(CNC(=O)Cc2ccc(NC(=O)N3CCSc4ncccc43)cc2)c1OC	inconclusive: 28.2 µM [inhibitor, partial curve, poor fit]	–
CC1(C)CC(Nc2nccc(-c3cnn(-c4ccccc4)c3)n2)CC(C)(C)N1	active: 28.2 µM	–
Cc1nc2nc3ccn(CCN(C)C)c(=O)c3c(-c3ccccc3)n2n1	inconclusive: 39.8 µM [inhibitor, single point]	–
COc1ccccc1NC(=O)CSc1nc2nccnc2c(=O)n1CCc1c[nH]c2ccccc12	inconclusive: 1.41 µM [inhibitor, full curve, poor fit]	–
Cc1cccn2c(Nc3ccccc3)c(-c3cccs3)nc12	inconclusive: 35.5 µM [inhibitor, partial curve, poor fit]	–
CN(C)C(=O)N1CCN(c2ccc(C=O)cc2)C(=O)C1	inconclusive: 28.2 µM [inhibitor, full curve, poor fit]	–
O=C(c1ccc2c(c1)OCO2)N1CCC2(CC1)NC(=O)N(c1ccc(F)cc1)N2	inconclusive: 28.2 µM [inhibitor, single point]	–
CCC(C)c1ccc2oc(-c3ccc(Cl)c(NC(C)=O)c3)nc2c1 (stereo unspecified)	inconclusive: 1.78 µM [inhibitor, partial curve, poor fit]	–
COc1ccc(Oc2coc3cc(O)ccc3c2=O)cc1	inconclusive: 12.6 µM [inhibitor, partial curve, poor fit]	–
COc1cccc(NS(=O)(=O)c2ccc3c(c2)[C@H]2C=CC[C@H]2[C@@H](c2ccccc2Cl)N3)c1	inconclusive: 14.1 µM [inhibitor, partial curve, poor fit]	–
CCc1noc(-c2cn(C3CCN(C(=O)COc4ccc(F)cc4)C3)nn2)n1 (stereo unspecified)	–	inactive: -10.6%
O=C(c1ccc2c(c1)OCO2)N1CCN(C2CCNCC2)C(=O)C1	inconclusive: 56.2 µM [inhibitor, partial curve, poor fit]	–
Cc1ccc(-c2nn(-c3cccc(F)c3)cc2CN(C)CCO)o1	active: 25.1 µM	–

SMILES	Potency	activity change, negative = inhibition
O=Cc1ccc(Sc2ccccc2)o1	inconclusive: 25.1 µM [inhibitor, partial curve, poor fit]	–
COc1ccc2nc(/C(C#N)=C/c3ccccc3Sc3ccccc3)[nH]c2c1	inconclusive: 39.8 µM [inhibitor, single point]	–
CN1c2cc(C(=O)Nc3cccc(Cl)c3)ccc2C(=O)N2CCCCC21 (stereo unspecified)	inconclusive: 28.2 µM [inhibitor, partial curve, poor fit]	–
Cc1ccc2scc(N3CCC(C)CC3)c(=O)c2c1	inconclusive: 15.8 µM [inhibitor, partial curve, poor fit]	–
CCC(=O)Nc1ccc(C2=Nn3c(nnc3C(C)C)SC2)cc1	inconclusive: 28.2 µM [inhibitor, partial curve, poor fit]	–
C=CCNC(=S)NCCCOC	–	inactive: 13%
O=C(Nc1ccc2cn[nH]c2c1)c1ccc2c(c1)OCCN(c1ccccc1)C2	active: 31.6 µM	–
Cc1ccc2c(n1)N(C)[C@H](CO)CCN(Cc1ccc(F)cc1)C2	active: 35.5 µM	–
CCOC(=O)c1cc(NC(=O)C(c2ccccc2)c2ccccc2)ccc1N1CCOCC1	inconclusive: 35.5 µM [inhibitor, partial curve, poor fit]	–
O=C(c1ccc(Cl)cc1)N1CCn2c(nn(-c3ccc(C(F)(F)F)cc3)c2=O)C1	–	inactive: 4.81% [at 115 µM]
COc1cccc(-c2cccc(CCOc3cnc4c(ccn4CC(=O)O)c3)c2)c1	active: 31.6 µM	–
CCc1nnc2sc(-c3ccc(CNC(=O)c4ccc(F)cc4)cc3)nn12	–	inactive: 7.78%
O=C(Nc1cc2c(cc1Sc1ccccc1)OCCO2)c1ccc2c(c1)OCCCO2	inconclusive: 28.2 µM [inhibitor, partial curve, poor fit]	–
CCOc1ccc(CNC(=O)c2cnc3sc(N4CCOCC4)nn3c2=O)cc1OC	inconclusive: 17.8 µM [inhibitor, partial curve, poor fit]	–
CC(C)c1nc2ccc(C(=O)NCCCN3CCN(c4cccc(Cl)c4)CC3)cc2o1	inconclusive: 17.8 µM [inhibitor, partial curve, poor fit]	–
CCOC(=O)N1CCN(Cc2nc3cc([N+](=O)[O-])ccc3n2C(C)C)CC1	inconclusive: 22.4 µM [inhibitor, single point]	–
c1cc(CNC2CC2)ccn1	inconclusive: 17.8 µM [inhibitor, partial curve, poor fit]	–
CC(=O)Nc1nc2ncccn2c1-c1ccc(F)c(F)c1	inconclusive: 22.4 µM [inhibitor, partial curve, poor fit]	–
NC(=O)c1ccc(-c2ncc3cnc(-c4cccc(F)c4)cn23)cc1	inconclusive: 10 µM [inhibitor, partial curve, poor fit]	–
COc1ccc(C)cc1S(=O)(=O)Nc1ccc(Nc2nc(C)cc(N3CCOCC3)n2)cc1	–	inactive: 2.27%
